Among the data in the supplement of paper PMC8047034 are log2 surviving fraction values, retold here.

Structures can show the parent of a compound that is named as a salt. The list shows a part of the results. Many values rest on one well or one pass, so single values are uncertain.

One assay relates to OVCAR4. As to the kind of experiment: log2 surviving fraction (library drug vs vehicle, or drug + carboplatin vs carboplatin alone; relative to plate median); ovarian cancer lines: OVCAR4 is platinum-sensitive and Ov4Carbo platinum-resistant; higher = more cell survival. The conditions noted are these: library drug concentration 10 µM, 7 days.
The subject of the next assay is Ov4Carbo. Described as above. The conditions noted are these: library drug concentration 10 µM, 7 days.

As for `O=C1c2ccccc2C(=O)C1c1ccccc1` [Phenindione (Rectadione)], the log2 surviving fraction in the assay with OVCAR4 (carboplatin co-treatment 0 µM) turned out to be 0.925; with OVCAR4 (carboplatin co-treatment 5 µM), 0.693; with Ov4Carbo (carboplatin co-treatment 0 µM), 0.339; with Ov4Carbo (carboplatin co-treatment 5 µM), 0.793.

As to `CCC[C@H](N[C@@H](C)C(=O)N1[C@H](C(=O)O)C[C@@H]2CCCC[C@@H]21)C(=O)OCC` [Perindopril Erbumine (Aceon)], the log2 surviving fraction with OVCAR4 (carboplatin co-treatment 0 µM) was 0.143; in the assay on OVCAR4 (carboplatin co-treatment 5 µM), -0.163; with Ov4Carbo (carboplatin co-treatment 0 µM), 0.915; in the assay with Ov4Carbo (carboplatin co-treatment 5 µM), 0.0487.

Turning to `CCOC(=O)[C@H](CCc1ccccc1)N[C@H]1CCc2ccccc2N(CC(=O)O)C1=O` [Benazepril hydrochloride], the log2 surviving fraction was -0.358 with OVCAR4 (carboplatin co-treatment 0 µM), 1.26 in the assay on OVCAR4 (carboplatin co-treatment 5 µM), 0.729 in the assay on Ov4Carbo (carboplatin co-treatment 0 µM) and 0.983 with Ov4Carbo (carboplatin co-treatment 5 µM).

As for `CNCC(=O)c1ccc(O)c(O)c1` [Adrenalone HCl], the log2 surviving fraction in the assay on OVCAR4 (carboplatin co-treatment 0 µM) is -0.84; with OVCAR4 (carboplatin co-treatment 5 µM) it was -0.703; in the assay with Ov4Carbo (carboplatin co-treatment 0 µM), -0.981; with Ov4Carbo (carboplatin co-treatment 5 µM) it was -1.18.

Take `CN(C)CC/C=C1/c2ccccc2Sc2ccc(Cl)cc21` [Chlorprothixene]: the log2 surviving fraction with OVCAR4 (carboplatin co-treatment 0 µM) is 1.27; in the assay on OVCAR4 (carboplatin co-treatment 5 µM), 0.718; in the assay with Ov4Carbo (carboplatin co-treatment 0 µM), -2.4; with Ov4Carbo (carboplatin co-treatment 5 µM) it was 0.284.

Take `NS(=O)(=O)c1cc2c(cc1Cl)N=CNS2(=O)=O` [Chlorothiazide]: the log2 surviving fraction with OVCAR4 (carboplatin co-treatment 0 µM) is -2.5; in the assay with OVCAR4 (carboplatin co-treatment 5 µM), 1.03; in the assay with Ov4Carbo (carboplatin co-treatment 0 µM), 0.806; in the assay on Ov4Carbo (carboplatin co-treatment 5 µM), 0.0135.

With `CCN[C@H]1CN(CCCOC)S(=O)(=O)c2sc(S(N)(=O)=O)cc21` [Brinzolamide], the log2 surviving fraction with OVCAR4 (carboplatin co-treatment 0 µM) stood at 0.977; in the assay with OVCAR4 (carboplatin co-treatment 5 µM), 0.497; in the assay on Ov4Carbo (carboplatin co-treatment 0 µM) it was 2.6; in the assay on Ov4Carbo (carboplatin co-treatment 5 µM), 1.95.

`Nc1ccc(C(=O)O)c(O)c1` [Aminosalicylate sodium]: the log2 surviving fraction with OVCAR4 (carboplatin co-treatment 0 µM) is -0.462; in the assay with OVCAR4 (carboplatin co-treatment 5 µM) it was -0.511; in the assay with Ov4Carbo (carboplatin co-treatment 0 µM) it was 0.0677; in the assay on Ov4Carbo (carboplatin co-treatment 5 µM), -0.803.

Turning to `CO[C@H]1C(=O)[C@]2(C)[C@@H](OC)C[C@H]3OC[C@@]3(OC(C)=O)[C@H]2[C@H](OC(=O)c2ccccc2)[C@]2(O)C[C@H](OC(=O)[C@H](O)[C@@H](NC(=O)OC(C)(C)C)c3ccccc3)C(C)=C1C2(C)C` [Cabazitaxel (Jevtana)], the log2 surviving fraction was -6.19 with OVCAR4 (carboplatin co-treatment 0 µM), -5.77 in the assay on OVCAR4 (carboplatin co-treatment 5 µM), -5.93 in the assay on Ov4Carbo (carboplatin co-treatment 0 µM) and -4.89 in the assay on Ov4Carbo (carboplatin co-treatment 5 µM).

Take `CCOC(=O)C1=C(COCCN)NC(C)=C(C(=O)OC)C1c1ccccc1Cl` (configuration not stated) [Amlodipine (Norvasc)]: the log2 surviving fraction with OVCAR4 (carboplatin co-treatment 0 µM) is -0.874; with OVCAR4 (carboplatin co-treatment 5 µM), -1.7; in the assay on Ov4Carbo (carboplatin co-treatment 0 µM) it was -0.993; in the assay on Ov4Carbo (carboplatin co-treatment 5 µM) it was -3.

`Cc1nccn1CC1CCc2c(c3ccccc3n2C)C1=O` (configuration not stated) [Ondansetron (Zofran)]: the log2 surviving fraction is -2.13 in the assay on OVCAR4 (carboplatin co-treatment 0 µM), 0.276 in the assay with OVCAR4 (carboplatin co-treatment 5 µM), 0.286 in the assay on Ov4Carbo (carboplatin co-treatment 0 µM) and 0.108 in the assay with Ov4Carbo (carboplatin co-treatment 5 µM).

`CS(=O)(=O)CCNCc1ccc(-c2ccc3ncnc(Nc4ccc(OCc5cccc(F)c5)c(Cl)c4)c3c2)o1` [Lapatinib]: the log2 surviving fraction in the assay on OVCAR4 (carboplatin co-treatment 0 µM) is -0.869; in the assay on OVCAR4 (carboplatin co-treatment 5 µM), 1.35; with Ov4Carbo (carboplatin co-treatment 0 µM), -1.06; in the assay with Ov4Carbo (carboplatin co-treatment 5 µM), -6.03.

On to `Nc1nc(NC2CC2)c2ncn([C@H]3C=C[C@@H](CO)C3)c2n1` [Abacavir sulfate], for which the log2 surviving fraction in the assay with OVCAR4 (carboplatin co-treatment 0 µM) was -0.558; in the assay with OVCAR4 (carboplatin co-treatment 5 µM) it was 0.37; in the assay on Ov4Carbo (carboplatin co-treatment 0 µM), -0.607; with Ov4Carbo (carboplatin co-treatment 5 µM) it was -0.113.

`CCCN(CCC)S(=O)(=O)c1ccc(C(=O)O)cc1` [Probenecid (Benemid)]: the log2 surviving fraction was 0.49 with OVCAR4 (carboplatin co-treatment 0 µM), 0.273 in the assay with OVCAR4 (carboplatin co-treatment 5 µM), 1.4 with Ov4Carbo (carboplatin co-treatment 0 µM) and 1.52 in the assay on Ov4Carbo (carboplatin co-treatment 5 µM).

`c1ccc2c(CC3=NCCN3)cccc2c1` [Naphazoline hydrochloride (Naphcon)]: the log2 surviving fraction in the assay on OVCAR4 (carboplatin co-treatment 0 µM) is -0.395; with OVCAR4 (carboplatin co-treatment 5 µM), -0.651; with Ov4Carbo (carboplatin co-treatment 0 µM) it was 0.161; in the assay with Ov4Carbo (carboplatin co-treatment 5 µM), -0.0479.

As for `CC(=O)Oc1cc(C(F)(F)F)ccc1C(=O)O` [Triflusal], the log2 surviving fraction in the assay on OVCAR4 (carboplatin co-treatment 0 µM) is -0.00993; with OVCAR4 (carboplatin co-treatment 5 µM) it was -0.406; with Ov4Carbo (carboplatin co-treatment 0 µM), -0.241; in the assay on Ov4Carbo (carboplatin co-treatment 5 µM) it was -0.261.

Regarding `C[C@H](CCC(=O)O)[C@H]1CC[C@H]2[C@@H]3CC[C@@H]4C[C@H](O)CC[C@]4(C)[C@H]3CC[C@]12C` [Lithocholic acid], the log2 surviving fraction is -0.391 in the assay with OVCAR4 (carboplatin co-treatment 0 µM), -0.476 with OVCAR4 (carboplatin co-treatment 5 µM), -0.294 in the assay on Ov4Carbo (carboplatin co-treatment 0 µM) and 0.749 in the assay on Ov4Carbo (carboplatin co-treatment 5 µM).

Turning to `C[C@]12C/C(=C/O)C(=O)C[C@@H]1CC[C@@H]1[C@@H]2CC[C@@]2(C)[C@H]1CC[C@]2(C)O` [Oxymetholone], the log2 surviving fraction in the assay with OVCAR4 (carboplatin co-treatment 0 µM) is -0.0167; in the assay on OVCAR4 (carboplatin co-treatment 5 µM) it was 0.333; in the assay on Ov4Carbo (carboplatin co-treatment 0 µM), -0.689; in the assay on Ov4Carbo (carboplatin co-treatment 5 µM) it was 0.701.

Regarding `CCCN[C@H]1CCc2nc(N)sc2C1` [Pramipexole dihydrochloride monohydrate], the log2 surviving fraction is -0.883 in the assay on OVCAR4 (carboplatin co-treatment 0 µM), 0.698 with OVCAR4 (carboplatin co-treatment 5 µM), 0.0786 in the assay with Ov4Carbo (carboplatin co-treatment 0 µM) and -1.08 with Ov4Carbo (carboplatin co-treatment 5 µM).

Take `C[N+](C)(C)CC(O)CC(=O)[O-]` (racemic) [DL-Carnitine hydrochloride]: the log2 surviving fraction is -0.625 in the assay on OVCAR4 (carboplatin co-treatment 0 µM), -0.124 in the assay with OVCAR4 (carboplatin co-treatment 5 µM), -0.135 in the assay with Ov4Carbo (carboplatin co-treatment 0 µM) and -0.642 in the assay with Ov4Carbo (carboplatin co-treatment 5 µM).

With `CCCCCCCCCCCC[N+](C)(C)CCOc1ccccc1` [Domiphen Bromide], the log2 surviving fraction was -8.84 in the assay on OVCAR4 (carboplatin co-treatment 0 µM), -7.13 with OVCAR4 (carboplatin co-treatment 5 µM), -7.94 in the assay on Ov4Carbo (carboplatin co-treatment 0 µM) and -7.55 in the assay on Ov4Carbo (carboplatin co-treatment 5 µM).

As to `[O-][n+]1cccc(CO)c1` [Mepiroxol], the log2 surviving fraction was 0.246 in the assay with OVCAR4 (carboplatin co-treatment 0 µM), 0.0328 in the assay with OVCAR4 (carboplatin co-treatment 5 µM), -0.416 in the assay with Ov4Carbo (carboplatin co-treatment 0 µM) and 0.252 in the assay with Ov4Carbo (carboplatin co-treatment 5 µM).

On to `CC(C)(S)[C@@H](N)C(=O)O` [Penicillamine (Cuprimine)], for which the log2 surviving fraction is -0.138 with OVCAR4 (carboplatin co-treatment 0 µM), 0.193 with OVCAR4 (carboplatin co-treatment 5 µM), -0.199 with Ov4Carbo (carboplatin co-treatment 0 µM) and -0.528 in the assay with Ov4Carbo (carboplatin co-treatment 5 µM).

In the case of `N=C(N)Nc1ccc(C(=O)Oc2ccc3cc(C(=N)N)ccc3c2)cc1` [Nafamostat mesylate], the log2 surviving fraction in the assay on OVCAR4 (carboplatin co-treatment 0 µM) was 0.899; in the assay with OVCAR4 (carboplatin co-treatment 5 µM), 0.648; with Ov4Carbo (carboplatin co-treatment 0 µM), 0.695; in the assay with Ov4Carbo (carboplatin co-treatment 5 µM) it was 0.309.

As for `Cc1ccc(N(CC2=NCCN2)c2cccc(O)c2)cc1` [Phentolamine mesilate], the log2 surviving fraction in the assay on OVCAR4 (carboplatin co-treatment 0 µM) is 0.891; in the assay on OVCAR4 (carboplatin co-treatment 5 µM), 1.97; with Ov4Carbo (carboplatin co-treatment 0 µM), -1.5; in the assay on Ov4Carbo (carboplatin co-treatment 5 µM), 1.26.

As for `Nc1cccc2c1C(=O)N(C1CCC(=O)NC1=O)C2=O` (configuration not stated) [Pomalidomide], the log2 surviving fraction in the assay on OVCAR4 (carboplatin co-treatment 0 µM) is 1.11; in the assay on OVCAR4 (carboplatin co-treatment 5 µM), 0.0796; in the assay on Ov4Carbo (carboplatin co-treatment 0 µM), 0.729; in the assay on Ov4Carbo (carboplatin co-treatment 5 µM), -0.000482.

Turning to `CC(=O)OCC(=O)[C@@]1(O)CC[C@H]2[C@@H]3CCC4=CC(=O)C=C[C@]4(C)[C@@]3(Cl)[C@@H](Cl)C[C@@]21C` [Dichlorisone Acetate], the log2 surviving fraction is -1.12 in the assay with OVCAR4 (carboplatin co-treatment 0 µM), -0.88 with OVCAR4 (carboplatin co-treatment 5 µM), -0.126 in the assay with Ov4Carbo (carboplatin co-treatment 0 µM) and 0.224 in the assay on Ov4Carbo (carboplatin co-treatment 5 µM).

On to `Cc1cc(C(C)(C)C)c(O)c(C)c1CC1=NCCN1` [Oxymetazoline hydrochloride], for which the log2 surviving fraction in the assay with OVCAR4 (carboplatin co-treatment 0 µM) was -0.378; in the assay with OVCAR4 (carboplatin co-treatment 5 µM) it was -0.155; in the assay with Ov4Carbo (carboplatin co-treatment 0 µM) it was 0.517; with Ov4Carbo (carboplatin co-treatment 5 µM), 0.435.
